Measurements published in the supplement of paper PMC11417369.
Some of the results follow.

The sequences below were run on PF3D7_0420300 AP2 domain 1 (GST-tagged) (assay: gcPBM binding intensity (ln(normalized median fluorescence intensity)); higher = stronger DNA binding).
How it was run: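 Each value is the highest Masliner-normalised natural-log median intensity across replicate spots of either orientation of a probe. The probes were primer-extended double-stranded 36-bp intergenic genomic sequences on an Agilent 4 × 180k array, alongside negative controls, exposed for 1 h to GST-tagged P. falciparum DNA-binding domains expressed in E. coli. Bound protein was picked up with Alexa488 anti-GST antibody and scanned at 488 nm.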

Going from “ATAATATGAGTCCCACAAAATAGACCATACGAATAT [CACACA_negctrl_site50]” to TATAAATTTATACCAGTGCATTTTGAAATATATATA, the “gcPBM binding intensity (ln)” value falls from 9.4 to 9.2.

Going from “TGGAACCATAAAAAGTGTACACATATAAAAAATATG [XGTACX_site96]” to “TTTTTTTTTTTCTCCATACACACTTGATAAAACTTT [CACACA_site615]”, the “gcPBM binding intensity (ln)” value falls from 9.35 to 9.29.

First: ATTTTTTTTTTTTGTACATACCACATATACAAAACA [CACACA_negctrl_site1240]
Second: TAATTGATTCTTCACCGTACTCACACATATATATAT [XGTACX_site6530]
The “gcPBM binding intensity (ln)” value of the first is lower: 9.25 for the first, 9.53 for the second.

First: ATATATTATAAATGTAGTACCGTTACATAGTCATAG [XGTACX_site390]
Second: CACACCACCAACAAAAGTACATACATATATATATAT [XGTACX_site5781]
The “gcPBM binding intensity (ln)” value of the first is higher: 9.35 for the first, 9.27 for the second.

Compared with “TATATATTGCCCTTCACACACACACCCATATATATA [CACACA_site2493]”, “ACTACGAGTCGTAGAGTGCAGTCTGGAGAAAAGTAC [GTGCAC_site9769]” is lower in “gcPBM binding intensity (ln)” value: 10.2 for the first, 9.16 for the second.

Compared with “ATCAAGCACGAACACACACACACACGCACGCCCACA [CACACA_site6308]”, “TATTTATACATACGTACACACAAATATTAAAATATA [CACACA_site7004]” is lower in “gcPBM binding intensity (ln)” value: 10.2 for the first, 9.32 for the second.

Compared with “AAAAAAAAAAAAAAATCACACATTGGTTAAATATTA [CACACA_site5344]”, “CTATCAAATAATAGCAAACACACAAAAAATAAAAAA [CACACA_site4147]” is higher in “gcPBM binding intensity (ln)” value: 9.13 for the first, 9.73 for the second.

Going from “ATTCATACATGCACACGTACATATTTAAATATAAAA [XGTACX_site8388]” to “ATTTTTTATGAAAACATAAAAAAATGAGATAACCAT [CACACA_negctrl_site894]”, the “gcPBM binding intensity (ln)” value falls from 9.41 to 9.17.

Going from “TTTTGATTTTTTTATTGTACCCATAAACATATAATT [XGTACX_site5202]” to GGTATTTATGGACGCGTGCACACACATATGAACAAA, the “gcPBM binding intensity (ln)” value rises from 9.22 to 9.7.

First: TATTTTTGAAGTTGCACACACAAAAATAAAAAGTAT [CACACA_site418]
Second: TACAAACAATTAAACAAACACACATATACATGTATA [CACACA_site2061]
The “gcPBM binding intensity (ln)” value of the first is lower: 9.52 for the first, 9.68 for the second.

Going from “TCATGTTTTTAATATTGTACTCTCATTTTATATATC [XGTACX_site8412]” to ATATTTACTCACGTCTTGCACTGAGCAAGCATTATA, the “gcPBM binding intensity (ln)” value falls from 9.49 to 9.02.

Compared with “AGCTATTAATTTATTACATGCAAGATTAAAAGACTA [TGCATGCA_site281]”, “ATATATATATATAATTGTACATTTTTAACCTTAACA [XGTACX_site7910]” is higher in “gcPBM binding intensity (ln)” value: 8.99 for the first, 9.21 for the second.

Compared with “TTTTATGTTTTTTTTATAAATATTAAAATTCTATAT [CACACA_negctrl_site1477]”, “ATATTGTTATATGTTTGTACATATTTTTTATATTTT [XGTACX_site6834]” is higher in “gcPBM binding intensity (ln)” value: 8.87 for the first, 9.59 for the second.

Going from “AATGTTAAAAATGAAAGTACATGGAATTTATTATTT [XGTACX_site4095]” to “AAAAAAAAAAAATACACACACACATATAAATATGTA [CACACA_site6900]”, the “gcPBM binding intensity (ln)” value rises from 9.31 to 10.

Going from “GTTTATATATGCTTATAATTTTCAATTGTTTTACAA [TGCATGCA_negctrl_site384]” to “GACATTAATTATTTGACACACGACTGGGTGGTGATT [CACACA_site306]”, the “gcPBM binding intensity (ln)” value rises from 9.22 to 9.37.

Going from “TGATTCAATTTATGCACACTAAAAATTAATTATATT [CACACA_site271]” to “TTTTTTTTTTATACATGTACTTAAAAGTAGCACCTT [XGTACX_site1855]”, the “gcPBM binding intensity (ln)” value falls from 9.22 to 9.01.

First: ATTATATATACAACAAGTACAAAAGAAAAATATTAT [XGTACX_site2914]
Second: TTTGTAAAAGGTCATACACACATATTCAAAAGAAGT [CACACA_site2947]
The “gcPBM binding intensity (ln)” value of the first is lower: 9.63 for the first, 9.71 for the second.

Going from “TATAAATACATCCTATACTTCTCTTTTACAGTTTTA [CACACA_negctrl_site1283]” to “ATATATATATATAGGAGTACATGAAATACTTAAAAA [XGTACX_site8851]”, the “gcPBM binding intensity (ln)” value rises from 9.29 to 9.32.

Compared with “AAAAAAGAAATAATCAAATAAATAAAAAAGATGAAT [XGTACX_negctrl_site607]”, “GTGTGAAGATATAAATGCATTTTTTTATACATTTTC [CACACA_negctrl_site117]” is lower in “gcPBM binding intensity (ln)” value: 9.7 for the first, 9.23 for the second.

Compared with “TGTAAGTATTCTTGAGGTACACATATAAATATAGTA [XGTACX_site3207]”, “AATATTATATAATAAAGTACATATATATTCATATTT [XGTACX_site7204]” is higher in “gcPBM binding intensity (ln)” value: 9.09 for the first, 9.19 for the second.

First: TGTGTGGATATATGTATGCACTACCCTTTGGGTCAT [GTGCAC_site9506]
Second: ATATATTGAACCTATGCATGTAAAATATATGTAATA [TGCATGCA_site644]
The “gcPBM binding intensity (ln)” value of the first is lower: 9.16 for the first, 9.33 for the second.

First: AAATATTAAATGGAAAACAAATATATATATCTTAAT [XGTACX_negctrl_site383]
Second: TTATTTATTTTTTCATGTACTTAAATATATTAATGT [XGTACX_site5804]
The “gcPBM binding intensity (ln)” value of the first is higher: 9.34 for the first, 9.21 for the second.
